Measurements as given in PubChem BioAssay AID2202238 (Ras Initiative Chemistry Research Team, Frederick National …, 2025).
The list shows a part of the results. Shown are side measurements of this screen, not its main read-out; they come without a call.

Target: GTPase KRas (Homo sapiens) (UniProt P01116)
Experiment: Fragment capture on engineered cysteines, share of protein labelled (AID 2202238)
Set-up: protein at 5 µM with 500 µM competing thiol for 1.5 h
Details: KRAS G12D cysteine mutants, disulfide tethering, MALDI-TOF labeling, stronger effect = higher value, fragment at 500 µM
[1] = measured here: G75C mutant labeling
[2] = measured here: H94C mutant labeling
[3] = measured here: I36C mutant labeling
[4] = measured here: L120C mutant labeling
[5] = measured here: M67C mutant labeling
[6] = measured here: M72C mutant labeling
[7] = measured here: N86C mutant labeling
[8] = measured here: P121C mutant labeling
[9] = measured here: S122C mutant labeling
[10] = measured here: S136C mutant labeling
[11] = measured here: G60C mutant labeling
[12] = measured here: N26C mutant labeling

Sequence of UniProt P01116 (P01116 whole entry, looked up, the tested form may be a part): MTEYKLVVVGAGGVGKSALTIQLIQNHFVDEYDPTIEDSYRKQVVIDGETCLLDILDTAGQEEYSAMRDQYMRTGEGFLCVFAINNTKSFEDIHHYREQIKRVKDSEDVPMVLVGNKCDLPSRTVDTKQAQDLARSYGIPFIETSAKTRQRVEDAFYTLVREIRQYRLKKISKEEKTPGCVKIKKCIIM

Row | Compound | percent labeling [1] [%] | percent labeling [2] [%] | percent labeling [3] [%] | percent labeling [4] [%] | percent labeling [5] [%] | percent labeling [6] [%] | percent labeling [7] [%] | percent labeling [8] [%] | percent labeling [9] [%] | percent labeling [10] [%] | percent labeling [11] [%] | percent labeling [12] [%]
1 | CN1CCCC2(CCN(C(=O)CCS)CC2)C1 | 20.3 | 31 | 45.7 | 36.7 | 46.1 | 20.8 | 30.6 | 32.9 | 29.7 | 54.8 | – | –
2 | CN1CCc2nc3ccccc3c(C(=O)NCCS)c2C1 | 17.6 | 36.4 | 31.3 | 27.2 | 40.5 | 35 | 28.6 | 34.3 | 31.5 | 57.6 | 51.5 | 46.6
3 | CCOC(=O)C12CC(CNC(=O)CCS)(C1)OC2c1ccccc1 (configuration not stated) | 8.8 | 17.1 | 23.1 | 20.1 | 27.6 | 17.2 | 7.7 | 23.9 | 21.9 | 46.6 | – | –
4 | O=C(CCS)N1C[C@@H]2C[C@H](C1)c1cccc(=O)n1C2 | 7 | 28.1 | 32.9 | 29.1 | 40.8 | 11.9 | 16.8 | 35.1 | 33.3 | 48.5 | – | –
5 | N#Cc1cc2c([nH]c1=O)CC1CCC2N1C(=O)CCS (configuration not stated) | 10.1 | 31 | 37.3 | 32.1 | 37.2 | 21.5 | 34.4 | 33.7 | 33.6 | 49.7 | – | –
6 | O=C(CCS)NCC12CC(CN1C1CC1)C2 | 20.6 | 34.9 | 45.4 | 24.3 | 49.5 | 23.8 | 31.4 | 34.6 | 36.5 | 49.3 | – | –
7 | Cc1c(C(=O)NCCS)c2ccccc2n1Cc1ccccc1 | 12.5 | 14.9 | 10.5 | 12.5 | 8.6 | 27.7 | 10.7 | 10.9 | 5 | 10.1 | 54.8 | 24.3
8 | O=C(NCCS)c1cn(Cc2ccccc2)c2ccccc12 | 8.6 | 12.1 | 9.3 | 12.8 | 11.5 | 28.2 | 12.2 | 10.8 | 7.2 | 12.4 | 24.4 | 23.3
9 | O=C(NCCS)C1CCCC2CCCN21 (configuration not stated) | 24 | 43.6 | 43.5 | 36.2 | 43.3 | 35.4 | 31 | 34.5 | 34.2 | 53 | 40.7 | 43.2
10 | N#Cc1ccc(N2CC(C(=O)NCCS)CC2=O)cc1Cl (configuration not stated) | 10.4 | 20.5 | 22.1 | 17.2 | 18 | 29.1 | 16.3 | 15.6 | 11.5 | 20.9 | 33.4 | 33.2
11 | Cc1cc(NC(=O)CCS)cc(N2CCN(C)CC2)c1 | 16 | 43 | 43.5 | 38.9 | 43.4 | 42.4 | 24.3 | 34.1 | 35.6 | 52.6 | – | –
12 | O=C(NCCS)C1CCC2CCCCN21 (configuration not stated) | 28.8 | 46.4 | 32.6 | 33.4 | 38.1 | 37.4 | 33 | 35.1 | 36.5 | 52.5 | 46.4 | 40.5
